Experimental data published in publication PMC5727935, “The distinctive cell division interactome of Neisseria gonorrhoeae” (BMC Microbiology, 2017).
Like-named read-outs stand apart in the source and are kept apart here. No constants are given. Whether binding was seen depends on the method and setting. Some entries that bind do so weakly or less than the wild type. Tags and fused reporters may be left off the sequences shown.

T1: N. gonorrhoeae FtsQ, bacterial two-hybrid fusion (Neisseria gonorrhoeae CH811) (UniProt Q5F6M1)
T1 sequence: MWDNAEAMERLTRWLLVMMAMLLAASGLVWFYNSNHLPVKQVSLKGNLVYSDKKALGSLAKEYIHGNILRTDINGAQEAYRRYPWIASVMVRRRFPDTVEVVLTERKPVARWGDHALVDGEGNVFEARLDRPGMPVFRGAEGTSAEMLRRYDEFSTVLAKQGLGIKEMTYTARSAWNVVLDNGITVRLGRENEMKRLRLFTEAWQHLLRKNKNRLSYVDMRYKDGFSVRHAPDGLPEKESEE

T2: N. gonorrhoeae FtsW, bacterial two-hybrid fusion (Neisseria gonorrhoeae CH811) (UniProt B4RQC6)
T2 sequence: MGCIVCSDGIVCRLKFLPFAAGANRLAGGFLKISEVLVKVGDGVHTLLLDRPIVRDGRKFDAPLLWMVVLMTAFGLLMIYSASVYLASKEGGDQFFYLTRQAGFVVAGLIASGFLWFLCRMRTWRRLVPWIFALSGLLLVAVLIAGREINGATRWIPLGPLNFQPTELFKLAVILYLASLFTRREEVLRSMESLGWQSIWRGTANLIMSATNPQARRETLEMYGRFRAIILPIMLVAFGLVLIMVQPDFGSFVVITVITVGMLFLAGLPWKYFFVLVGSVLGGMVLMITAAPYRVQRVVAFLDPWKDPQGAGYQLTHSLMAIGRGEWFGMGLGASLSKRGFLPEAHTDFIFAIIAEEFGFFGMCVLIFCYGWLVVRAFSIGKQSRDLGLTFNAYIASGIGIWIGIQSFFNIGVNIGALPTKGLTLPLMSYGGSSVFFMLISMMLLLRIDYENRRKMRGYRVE

T3: N. gonorrhoeae FtsZ, bacterial two-hybrid fusion (Neisseria gonorrhoeae) (UniProt P72079)
T3 sequence: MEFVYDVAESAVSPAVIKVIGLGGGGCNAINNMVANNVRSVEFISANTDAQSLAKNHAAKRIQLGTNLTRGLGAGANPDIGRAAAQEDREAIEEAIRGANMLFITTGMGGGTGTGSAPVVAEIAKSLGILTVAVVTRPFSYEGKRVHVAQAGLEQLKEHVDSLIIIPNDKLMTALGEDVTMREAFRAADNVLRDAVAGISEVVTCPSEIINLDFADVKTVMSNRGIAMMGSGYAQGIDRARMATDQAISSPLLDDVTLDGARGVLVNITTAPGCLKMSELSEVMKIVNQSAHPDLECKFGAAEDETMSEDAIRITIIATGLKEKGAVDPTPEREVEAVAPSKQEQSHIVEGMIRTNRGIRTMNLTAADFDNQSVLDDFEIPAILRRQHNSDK


Experiments:
Experiment in all cases: two-hybrid; bacterial two-hybrid (Di Lallo): fusions to P22 and 434 repressor ends in E. coli R721, 34 °C; residual β-galactosidase activity against R721 without plasmids (2504 ± 34 Miller units); less than 50% counts as a positive interaction
[1] = molecular target: T1, N. gonorrhoeae FtsQ, bacterial two-hybrid fusion (Neisseria gonorrhoeae CH811)
[2] = molecular target: T2, N. gonorrhoeae FtsW, bacterial two-hybrid fusion (Neisseria gonorrhoeae CH811)
[3] = molecular target: T3, N. gonorrhoeae FtsZ, bacterial two-hybrid fusion (Neisseria gonorrhoeae)
[4] = molecular target: T3, N. gonorrhoeae FtsZ, bacterial two-hybrid fusion (Neisseria gonorrhoeae); remark: listed apart in the source
[5] = molecular target: T1, N. gonorrhoeae FtsQ, bacterial two-hybrid fusion (Neisseria gonorrhoeae CH811); remark: listed apart in the source
[6] = molecular target: T2, N. gonorrhoeae FtsW, bacterial two-hybrid fusion (Neisseria gonorrhoeae CH811); remark: listed apart in the source

| Molecule | binding [4] | binding [2] | further results |
| --- | --- | --- | --- |
| FtsANg truncation T2 (amino acids 1-194), bacterial two-hybrid fusion (from UniProt Q5F6M2 1-194) (domain or fragment) |  | no binding | binding [1]: no binding; binding [3]: no binding |
| FtsANg truncation T3 (amino acids 1-230), bacterial two-hybrid fusion (from UniProt Q5F6M2 1-230) (domain or fragment) |  | no binding | binding [1]: no binding |
| FtsANg truncation T1 (amino acids 1-162), bacterial two-hybrid fusion (from UniProt Q5F6M2 1-162) (domain or fragment) |  |  | binding [3]: no binding |
| FtsANg truncation T4 (amino acids 231-301), bacterial two-hybrid fusion (from UniProt Q5F6M2 231-301) (domain or fragment) |  | no binding |  |
| FtsANg truncation T3 (amino acids 1-230), bacterial two-hybrid fusion (domain or fragment, UniProt Q5F6M2 1-230) MEQQKRYISVLDIGTSKVLALIGEVQDDDKINIIGLGQAPSRGLRAGMVTNIDATVQAIRQAVNDAELMADTKITHVTTGIAGNHIRSLNSQGVVKIKDGEVTQADIDRAIETAKAINIPPDQKILDAVVQDYIIDTQLGVREPIGMSGVRLDTRVHIITGASTAVQNVQKCIELCGLKSDQIMLQPLASGQAVLTEDEKDLGVCVIDIGGGTTDIAVYMNGAIRHTSVI | binds |  |  |

Continued, in another order:

| binding [4] | Molecule | binding [2] | further results |
| --- | --- | --- | --- |
| binds | FtsANg truncation T4 (amino acids 231-301), bacterial two-hybrid fusion (domain or fragment, UniProt Q5F6M2 231-301) PAGGNLITKDLSKSLRTPLDAAEYIKIHYGVASCDTEGLGEMIEVPGVGDRTSRQVSSKVLAAIISARIQE |  | binding [5]: binds |
| no binding | N. gonorrhoeae FtsQ, bacterial two-hybrid fusion (protein, UniProt Q5F6M1 1-242) MWDNAEAMERLTRWLLVMMAMLLAASGLVWFYNSNHLPVKQVSLKGNLVYSDKKALGSLAKEYIHGNILRTDINGAQEAYRRYPWIASVMVRRRFPDTVEVVLTERKPVARWGDHALVDGEGNVFEARLDRPGMPVFRGAEGTSAEMLRRYDEFSTVLAKQGLGIKEMTYTARSAWNVVLDNGITVRLGRENEMKRLRLFTEAWQHLLRKNKNRLSYVDMRYKDGFSVRHAPDGLPEKESEE |  | binding [6]: no binding |
| binds | FtsANg truncation T5 (amino acids 302-414), bacterial two-hybrid fusion (domain or fragment, UniProt Q5F6M2 302-414) IFGVVLGELQKSGFPKEVLNAGIVLTGGVSMMTGIVEFAEKIFDLPVRTGAPQEMGGLSDRVRTPRFSTAIGLLHAACKLEGNLPQPENGTVQEREGGGGLLARLKRWIENNL |  | binding [5]: binds; binding [6]: binds |
| binds | N. gonorrhoeae FtsZ, bacterial two-hybrid fusion (natural protein, Neisseria gonorrhoeae, UniProt P72079 1-392, looked up, FtsZ of Neisseria gonorrhoeae; Cloned in both vectors (pcIp22 and pcI434); each fusion carries one of the two repressor ends; also called FtsZNg; pcIp22-Z; source: bacterial two-hybrid fusion, expressed in E. coli R721) MEFVYDVAESAVSPAVIKVIGLGGGGCNAINNMVANNVRSVEFISANTDAQSLAKNHAAKRIQLGTNLTRGLGAGANPDIGRAAAQEDREAIEEAIRGANMLFITTGMGGGTGTGSAPVVAEIAKSLGILTVAVVTRPFSYEGKRVHVAQAGLEQLKEHVDSLIIIPNDKLMTALGEDVTMREAFRAADNVLRDAVAGISEVVTCPSEIINLDFADVKTVMSNRGIAMMGSGYAQGIDRARMATDQAISSPLLDDVTLDGARGVLVNITTAPGCLKMSELSEVMKIVNQSAHPDLECKFGAAEDETMSEDAIRITIIATGLKEKGAVDPTPEREVEAVAPSKQEQSHIVEGMIRTNRGIRTMNLTAADFDNQSVLDDFEIPAILRRQHNSDK |  |  |
